Source: patent publication US20230203204A1 (published 2023)

T1: recombinant human RANKL-murine Fc fusion protein (Sino Biological Inc.) (human, UniProt O14788 136-317, limits assumed)
T1 construct: Bought; not shown: murine Fc
T1 sequence (looked up): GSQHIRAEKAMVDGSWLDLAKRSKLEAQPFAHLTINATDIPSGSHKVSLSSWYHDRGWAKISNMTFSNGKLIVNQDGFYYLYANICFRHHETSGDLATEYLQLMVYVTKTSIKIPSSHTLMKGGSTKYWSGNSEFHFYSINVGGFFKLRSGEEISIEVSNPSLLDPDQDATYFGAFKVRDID


Legend:
[1] = molecular target: T1, recombinant human RANKL-murine Fc …; assay: ELISA, human RANKL-murine Fc coated at 1 ug/mL, fusion protein titrated, anti-human IgG Fc-AP detection
[2] = molecular target: T2, Recombinant human TNFa (SinoBiological) (human, UniProt P01375 in part); assay: ELISA, rhTNFa coated, fusion protein titrated, anti-human IgG Fc-AP detection
T2 construct: also called rhTNFa
T2 sequence (P01375 77-233 limits assumed): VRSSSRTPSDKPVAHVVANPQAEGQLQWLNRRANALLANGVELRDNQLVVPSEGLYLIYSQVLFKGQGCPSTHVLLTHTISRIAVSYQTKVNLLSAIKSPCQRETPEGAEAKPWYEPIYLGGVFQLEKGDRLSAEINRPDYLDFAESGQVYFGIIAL

Row | EC50 [1] [µg/mL] | EC50 [2] [µg/mL] | Binder
1 | 0.0094 | 0.068 | TNFR2 (1-257)-OPG(22-194)-TNFR2(202-257)-Fc fusion protein (Fc fusion, also called TNFR2-OPG-Fc; TOFc) LPAQVAFTPYAPEPGSTCRLREYYDQTAQMCCSKCSPGQHAKVFCTKTSDTVCDSCEDSTYTQLWNWVPECLSCGSRCSSDQVETQACTREQNRICTCRPGWYCALSKQEGCRLCAPLRKCRPGFGVARPGTETSDVVCKPCAPGTFSNTTSSTDICRPHQICNVVAIPGNASRDAVCTSTSPTRSMAPGAVHLPQPVSTRSQHTQPTPEPSTAPSTSFLLPMGPSPPAEGSTGDETFPPKYLHYDEETSHQLLCDKCPPGTYLKQHCTAKWKTVCAPCPDHYYTDSWHTSDECLYCSPVCKELQYVKQECNRTHNRVCECKEGRYLEIEFCLKHRSCPPGFGVVQAGTPERNTVCKRCPDGFFSNETSSKAPCRKHTNCSVFGLLLTQKGNATHDNICSGNSESTQKSTSPTRSMAPGAVHLPQPVSTRSQHTQPTPEPSTAPSTSFLLPMGPSPPAEGSTGD[left out - human IgG1 Fc]
2 | 0.0099 | 0.033 | OPG-TNFR2-Fc fusion protein (Fc fusion, also called OPG(1-194)-TNFR2(23-257)-Fc; OTFc) ETFPPKYLHYDEETSHQLLCDKCPPGTYLKQHCTAKWKTVCAPCPDHYYTDSWHTSDECLYCSPVCKELQYVKQECNRTHNRVCECKEGRYLEIEFCLKHRSCPPGFGVVQAGTPERNTVCKRCPDGFFSNETSSKAPCRKHTNCSVFGLLLTQKGNATHDNICSGNSESTQKLPAQVAFTPYAPEPGSTCRLREYYDQTAQMCCSKCSPGQHAKVFCTKTSDTVCDSCEDSTYTQLWNWVPECLSCGSRCSSDQVETQACTREQNRICTCRPGWYCALSKQEGCRLCAPLRKCRPGFGVARPGTETSDVVCKPCAPGTFSNTTSSTDICRPHQICNVVAIPGNASRDAVCTSTSPTRSMAPGAVHLPQPVSTRSQHTQPTPEPSTAPSTSFLLPMGPSPPAEGSTGD[left out - human IgG1 Fc]
